# Positions count from the first letter of the chain named. Results are given in words; binding and its absence hold for the method and conditions named. Binding seen in cells or lysates may run through a third protein. Some results given as binding are weak or reduced against the parent protein; the word gives no strength.
# Chains of the proteins cited; added tags and fusions are not shown.
# UniProt P33897: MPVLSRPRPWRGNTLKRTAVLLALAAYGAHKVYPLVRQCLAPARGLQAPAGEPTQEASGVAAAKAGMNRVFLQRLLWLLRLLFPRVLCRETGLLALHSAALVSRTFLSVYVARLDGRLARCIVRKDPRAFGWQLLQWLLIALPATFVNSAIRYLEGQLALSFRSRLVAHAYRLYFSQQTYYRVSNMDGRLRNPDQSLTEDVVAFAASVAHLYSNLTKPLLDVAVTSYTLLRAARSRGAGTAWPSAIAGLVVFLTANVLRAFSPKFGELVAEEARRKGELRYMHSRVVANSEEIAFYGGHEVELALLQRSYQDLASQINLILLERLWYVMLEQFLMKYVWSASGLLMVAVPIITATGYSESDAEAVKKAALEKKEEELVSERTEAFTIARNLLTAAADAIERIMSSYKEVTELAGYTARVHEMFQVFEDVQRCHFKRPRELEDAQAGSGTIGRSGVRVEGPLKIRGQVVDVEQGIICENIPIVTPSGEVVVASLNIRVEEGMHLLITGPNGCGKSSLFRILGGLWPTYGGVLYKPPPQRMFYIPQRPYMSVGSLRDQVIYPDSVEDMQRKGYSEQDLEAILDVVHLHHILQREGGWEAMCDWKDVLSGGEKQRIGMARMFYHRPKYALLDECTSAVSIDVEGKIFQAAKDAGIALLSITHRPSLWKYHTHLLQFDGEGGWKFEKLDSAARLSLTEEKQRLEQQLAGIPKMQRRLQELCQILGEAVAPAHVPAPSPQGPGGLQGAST
# B1: peroxisome biogenesis factor 26 (PEX26) wild-type (protein, UniProt Q7Z412-1 1-305)
# chain: MKSDSSTSAAPLRGLGGPLRSSEPVRAVPARAPAVDLLEEAADLLVVHLDFRAALETCERAWQSLANHAVAEEPAGTSLEVKCSLCVVGIQALAEMDRWQEVLSWVLQYYQVPEKLPPKVLELCILLYSKMQEPGAVLDVVGAWLQDPANQNLPEYGALAEFHVQRVLLPLGCLSEAEELVVGSAAFGEERRLDVLQAIHTARQQQKQEHSGSEEAQKPNLEGSVSHKFLSLPMLVRQLWDSAVSHFFSLPFKKSLLAALILCLLVVRFDPASPSSLHFLYKLAQLFRWIRKAAFSRLYQLRIRD
# B2: PEX26 p.Leu44Pro (protein, UniProt Q7Z412-1 1-305)
# chain: B1 chain with L44P
# B3: PEX26 p.Leu45Pro (protein, UniProt Q7Z412-1 1-305)
# chain: B1 chain with L45P
# B4: PEX26 p.Gly89Arg (protein, UniProt Q7Z412-1 1-305)
# chain: B1 chain with G89R
# B5: PEX26 p.Arg98Trp (protein, UniProt Q7Z412-1 1-305)
# chain: B1 chain with R98W
# B6: PEX26 p.Pro117Leu (protein, UniProt Q7Z412-1 1-305)
# chain: B1 chain with P117L
# B7: PEX26 p.Pro118Arg (protein, UniProt Q7Z412-1 1-305)
# chain: B1 chain with P118R
# B8: PEX26 p.Leu153Val (protein, UniProt Q7Z412-1 1-305)
# chain: B1 chain with L153V
# Target: ABCD1 (UniProt P33897)
# Experiment: FRET or BRET; BRET in living HEK293 cells co-transfected with Rluc (donor) and YFP (acceptor) fusions, acceptor to donor ratio 3:1; read 48 h later with coelenterazine 30 μM; all eight combinations of N- or C-terminal fusions tested in duplicates; interaction assumed if at least one combination gave a BRET ratio above the threshold of 0.094
row,Binder,binding
1,B1,binds
2,B2,binds
3,B3,binds
4,B4,no binding
5,B5,no binding
6,B6,no binding
7,B7,no binding
8,B8,binds

# Target: T1, ACBD5 (UniProt Q5T8D3)
# T1 sequence: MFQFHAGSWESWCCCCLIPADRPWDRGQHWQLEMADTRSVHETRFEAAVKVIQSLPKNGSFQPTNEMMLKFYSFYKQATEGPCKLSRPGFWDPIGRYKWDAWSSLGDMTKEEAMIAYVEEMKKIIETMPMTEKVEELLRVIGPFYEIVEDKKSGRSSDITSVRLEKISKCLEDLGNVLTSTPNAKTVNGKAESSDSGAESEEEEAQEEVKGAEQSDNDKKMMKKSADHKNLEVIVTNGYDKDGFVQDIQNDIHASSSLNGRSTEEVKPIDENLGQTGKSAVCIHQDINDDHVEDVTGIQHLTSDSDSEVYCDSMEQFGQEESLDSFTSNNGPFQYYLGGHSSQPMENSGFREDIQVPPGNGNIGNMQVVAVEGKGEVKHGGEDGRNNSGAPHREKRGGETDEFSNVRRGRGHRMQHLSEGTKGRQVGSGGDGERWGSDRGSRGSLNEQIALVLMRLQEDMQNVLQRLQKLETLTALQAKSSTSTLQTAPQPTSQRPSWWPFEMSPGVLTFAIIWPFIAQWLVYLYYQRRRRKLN
# Experiment: as above
row,Binder,binding
1,B1,binds
2,B2,no binding
3,B3,no binding
4,B4,no binding
5,B5,no binding
6,B6,no binding
7,B7,no binding
8,B8,no binding

# Target: T2, ECH1 (UniProt Q13011)
# T2 sequence: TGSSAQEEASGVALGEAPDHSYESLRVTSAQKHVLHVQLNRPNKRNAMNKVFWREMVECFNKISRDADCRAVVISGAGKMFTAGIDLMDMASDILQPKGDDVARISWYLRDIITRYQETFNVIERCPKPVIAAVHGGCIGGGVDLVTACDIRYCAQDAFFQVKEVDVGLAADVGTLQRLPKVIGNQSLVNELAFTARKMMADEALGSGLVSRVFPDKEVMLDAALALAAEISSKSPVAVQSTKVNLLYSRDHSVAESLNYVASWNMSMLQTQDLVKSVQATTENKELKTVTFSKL
# Experiment: as above
row,Binder,binding
1,B1,binds
2,B2,binds
3,B3,binds
4,B4,binds
5,B5,binds
6,B6,binds
7,B7,binds
8,B8,binds

# Target: T3, PXMP2 (UniProt Q9NR77)
# T3 sequence: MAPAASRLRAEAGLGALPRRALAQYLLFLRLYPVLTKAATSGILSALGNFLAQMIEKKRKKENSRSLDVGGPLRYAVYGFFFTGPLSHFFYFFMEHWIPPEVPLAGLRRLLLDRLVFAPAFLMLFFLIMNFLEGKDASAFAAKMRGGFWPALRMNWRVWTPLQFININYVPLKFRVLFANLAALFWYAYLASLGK
# Experiment: as above
row,Binder,binding
1,B1,binds
2,B2,binds
3,B3,binds
4,B4,binds
5,B5,binds
6,B6,binds
7,B7,binds
8,B8,binds

# Target: T4, peroxin PEX6 (UniProt Q13608)
# T4 sequence: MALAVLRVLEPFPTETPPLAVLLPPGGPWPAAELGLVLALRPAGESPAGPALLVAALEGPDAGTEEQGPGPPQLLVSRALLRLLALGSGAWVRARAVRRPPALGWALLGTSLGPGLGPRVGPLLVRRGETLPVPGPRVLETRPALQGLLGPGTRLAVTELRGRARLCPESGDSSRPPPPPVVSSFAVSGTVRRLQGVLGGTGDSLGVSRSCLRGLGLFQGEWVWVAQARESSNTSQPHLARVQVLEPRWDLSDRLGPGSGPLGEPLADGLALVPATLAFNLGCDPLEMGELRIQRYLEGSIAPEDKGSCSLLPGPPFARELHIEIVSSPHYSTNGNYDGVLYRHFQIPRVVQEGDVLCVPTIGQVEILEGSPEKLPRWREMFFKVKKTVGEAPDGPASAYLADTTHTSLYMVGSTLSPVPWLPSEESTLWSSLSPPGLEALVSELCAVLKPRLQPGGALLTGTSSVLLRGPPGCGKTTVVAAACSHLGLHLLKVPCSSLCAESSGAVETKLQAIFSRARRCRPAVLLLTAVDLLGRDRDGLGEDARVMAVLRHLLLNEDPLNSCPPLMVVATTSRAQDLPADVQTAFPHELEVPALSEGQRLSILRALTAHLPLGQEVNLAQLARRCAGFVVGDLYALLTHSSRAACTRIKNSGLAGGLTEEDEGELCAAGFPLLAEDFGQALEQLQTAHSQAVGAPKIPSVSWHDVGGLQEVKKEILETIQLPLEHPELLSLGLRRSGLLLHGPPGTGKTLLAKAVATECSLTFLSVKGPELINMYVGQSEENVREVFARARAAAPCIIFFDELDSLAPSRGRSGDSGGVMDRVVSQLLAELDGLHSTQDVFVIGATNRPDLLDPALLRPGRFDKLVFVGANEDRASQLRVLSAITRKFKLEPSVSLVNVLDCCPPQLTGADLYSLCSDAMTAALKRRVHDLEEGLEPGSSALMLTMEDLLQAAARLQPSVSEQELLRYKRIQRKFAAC
# Experiment: as above
row,Binder,binding
1,B1,binds
2,B2,no binding
3,B3,no binding
4,B4,no binding
5,B5,no binding
6,B6,no binding
7,B7,no binding
8,B8,binds
